Hit rate of the full screen: of about 310,000 compounds, about 14,000 (4.5%) showed an effect of 50% or more. The effect is printed as a negative number. This is one part of the list.
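Also: peak tail current of the secondary pulse compared with the same well before compound.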

Chain of human ether-à-go-go-related gene (hERG) potassium channel (Q12809 whole entry, looked up): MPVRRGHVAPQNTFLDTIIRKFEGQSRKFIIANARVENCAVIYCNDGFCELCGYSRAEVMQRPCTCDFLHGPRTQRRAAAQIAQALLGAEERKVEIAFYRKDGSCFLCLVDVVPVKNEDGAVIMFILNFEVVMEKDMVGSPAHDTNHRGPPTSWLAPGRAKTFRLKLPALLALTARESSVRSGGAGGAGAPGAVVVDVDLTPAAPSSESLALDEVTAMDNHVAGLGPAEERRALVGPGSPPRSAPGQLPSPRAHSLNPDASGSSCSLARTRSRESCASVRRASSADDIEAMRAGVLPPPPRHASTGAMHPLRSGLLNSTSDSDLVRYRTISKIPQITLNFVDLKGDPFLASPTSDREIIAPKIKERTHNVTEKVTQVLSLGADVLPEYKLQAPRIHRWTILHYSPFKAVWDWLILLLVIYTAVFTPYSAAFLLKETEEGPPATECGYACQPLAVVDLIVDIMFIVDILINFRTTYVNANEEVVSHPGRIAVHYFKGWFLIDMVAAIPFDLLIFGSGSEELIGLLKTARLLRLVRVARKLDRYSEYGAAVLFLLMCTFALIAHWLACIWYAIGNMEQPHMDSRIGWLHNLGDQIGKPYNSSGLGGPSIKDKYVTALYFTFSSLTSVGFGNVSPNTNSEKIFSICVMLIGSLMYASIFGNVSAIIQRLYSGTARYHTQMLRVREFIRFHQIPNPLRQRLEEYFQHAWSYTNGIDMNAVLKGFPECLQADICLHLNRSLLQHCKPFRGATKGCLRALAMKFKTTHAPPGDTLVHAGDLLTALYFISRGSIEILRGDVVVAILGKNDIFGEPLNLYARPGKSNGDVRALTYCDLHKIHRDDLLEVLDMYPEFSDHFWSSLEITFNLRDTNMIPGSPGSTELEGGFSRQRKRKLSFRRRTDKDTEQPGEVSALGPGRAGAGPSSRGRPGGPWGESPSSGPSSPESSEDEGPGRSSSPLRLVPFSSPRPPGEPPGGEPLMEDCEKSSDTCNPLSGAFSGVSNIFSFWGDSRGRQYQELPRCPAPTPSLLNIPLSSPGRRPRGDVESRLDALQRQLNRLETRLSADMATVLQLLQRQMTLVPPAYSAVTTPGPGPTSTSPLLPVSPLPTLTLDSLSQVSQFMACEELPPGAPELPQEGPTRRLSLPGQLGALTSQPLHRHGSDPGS

This test has as its target human ether-à-go-go-related gene (hERG) potassium channel (human, UniProt Q12809). Briefly: primary screen, population patch clamp on CHO cells stably expressing hERG.
On to `CC(Cc1ccccc1)C(=O)NCc1ccncc1` (stereo not drawn), for which the “hERG current change (%, negative = inhibition) at 10uM” value is -2.22%.
The figure for `CCOC(=O)C(NC(=O)Nc1ccc(F)cc1F)(Oc1ccccc1)C(F)(F)F` (stereo not drawn) is -3.02%; for `Clc1ccccc1CSc1nnc(-c2ccncc2)o1` it is -14%.
The figure for `COc1cccc(C(=O)N(CN2CCCC2=O)c2cccc(Cl)c2)c1OC` is 0.626%; for `S=C(Nc1ccc(Cl)cc1)N1CCOCC1` it is 0.368%.
For `CC1Nc2ncnc(N3CCc4ccccc4C3)c2N(Cc2ccc(Br)cc2)C1=O.O=C(O)C(F)(F)F` (stereo not drawn) the value was 1.81%; for `CC(=O)Nc1ccc(NS(=O)(=O)c2ccccc2)c2ccccc12`, 10.2%; for `CC1(C)CC(=O)C2=C(C1)NC(=O)NC2c1ccccc1Cl` (stereo not drawn), 16.3%.
`CC(OC(=O)CSc1ccc([N+](=O)[O-])cc1)C(=O)NCc1ccco1` (stereo not drawn): the “hERG current change (%, negative = inhibition) at 10uM” value was -8.82%.
As to `O=C(c1ccccc1)N1CCN(CC#Cc2ccccc2)CC1`, the “hERG current change (%, negative = inhibition) at 10uM” value is reported as -6.16%.
For `COc1cccc(Cn2cccc(NC(=O)NC3CCCCC3)c2=O)c1` the value was -13.8%.
For `COc1ccccc1C1CCN(Cc2ccc3ccccc3c2)CC1` the value was -75%; for `O=C(c1ccccc1)c1ccc2nc(Nc3ccccc3)c3nncn3c2c1`, -23.4%.
As for `CCN(C(=O)CN1CCN(c2ccccc2)CC1)c1c(N)n(Cc2ccccc2)c(=O)[nH]c1=O`, the “hERG current change (%, negative = inhibition) at 10uM” value is 7.81%.
The figure for `CCCCC(c1nnnn1C1CCCC1)N1CCN(C2CCCC2)CC1.Cl` (stereo not drawn) is -85.6%.
The figure for `O=C1NC(NS(=O)(=O)c2ccc(Cl)cc2)(C(F)(F)F)C(=O)N1CCc1ccccc1` (stereo not drawn) is 15.3%; for `CC(C)Cn1nc(NC(=O)c2cccs2)c2cc3ccccc3nc21` it is -2.33%.
For `O=C(NCCc1ccccc1)C1CCCN(S(=O)(=O)c2cnc[nH]2)C1` (stereo not drawn) the value was -1.39%; for `Cn1cccc1Cc1nnc(SCC(=O)Nc2ccc3c(c2)OCO3)n1CCc1ccccc1`, -26%.
Turning to `CC(=O)Nc1ccccc1C(=O)OCC(=O)Nc1ncccn1`, the “hERG current change (%, negative = inhibition) at 10uM” value is on record as 8.44%.
For `COc1ccc(-c2sc(NC(=O)c3ccc(C)cc3)nc2-c2ccc([N+](=O)[O-])cc2)cc1`, the “hERG current change (%, negative = inhibition) at 10uM” value was 9.66%.
The figure for `CN(C(=O)Oc1ccc(Cl)c2cccnc12)c1ccccc1` is -26.5%.
The figure for `c1coc(C2Nc3ccccc3-c3nc4ccccc4n32)c1` (stereo not drawn) is -15.6%; for `CCOc1ccc(NC(=O)c2ccccn2)cc1` it is 3.46%.

The record behind these values is paper PMC4336329 (PLoS ONE, 2015).
